# The supplement of paper PMC8728848
# The other results are listed elsewhere or left out.
# Key:
# Assay in all cases: glycan array binding signal (z-score within array); higher = stronger binding
# Conditions in all cases: glycan notation: IUPAC condensed, linker removed
# Fuc(a1-2)Gal = biological target: Fuc(a1-2)Gal
# Summary of the method: (§1)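 Glycan array data came from 3228 arrays in the Consortium for Functional Glycomics database, and only arrays with an available protein sequence were kept. Glycan names were put into IUPAC-condensed notation, and columns mapping to the same glycan were averaged. The binding signal is a within-array Z-score, averaged across arrays of one protein sequence run at different concentrations or buffers and across linkers. A negative Z-score can be read as non-binding.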
# Fuc(a1-2)Gal(b1-3)GalNAc = biological target: Fuc(a1-2)Gal(b1-3)GalNAc
# Summary of the method: as §1
# [1] = biological target: Fuc(a1-2)Gal(b1-3)GalNAc(b1-3)Gal
# Summary of the method: as §1
# [2] = biological target: Fuc(a1-2)Gal(b1-3)GalNAc(b1-3)Gal(a1-4)Gal(b1-4)Glc
# Summary of the method: as §1
# [3] = biological target: Fuc(a1-2)Gal(b1-3)GalNAc(b1-4)[Neu5Ac(a2-3)]Gal(b1-4)Glc
# Summary of the method: as §1
# Fuc(a1-2)Gal(b1-3)GlcNAc = biological target: Fuc(a1-2)Gal(b1-3)GlcNAc
# Summary of the method: as §1
# [4] = biological target: Fuc(a1-2)Gal(b1-3)GlcNAc(b1-2)Man(a1-3)[Fuc(a1-2)Gal(b1-3)GlcNAc(b1-2)Man(a1-6)]Man(b1-4)GlcNAc(b1-4)GlcNAc
# Summary of the method: as §1
# [5] = biological target: Fuc(a1-2)Gal(b1-3)GlcNAc(b1-3)Gal(b1-4)Glc
# Summary of the method: as §1
# [6] = biological target: Fuc(a1-2)Gal(b1-3)GlcNAc(b1-3)[Gal(b1-4)[Fuc(a1-3)]GlcNAc(b1-6)]Gal(b1-4)Glc
# Summary of the method: as §1
# [7] = biological target: Fuc(a1-2)Gal(b1-3)[Fuc(a1-4)]GlcNAc
# Summary of the method: as §1
# [8] = biological target: Fuc(a1-2)Gal(b1-3)[Fuc(a1-4)]GlcNAc(b1-2)Man(a1-3)[Fuc(a1-2)Gal(b1-3)[Fuc(a1-4)]GlcNAc(b1-2)Man(a1-6)]Man(b1-4)GlcNAc(b1-4)GlcNAc
# Summary of the method: as §1
# Fuc(a1-2)Gal(b1-4)Glc = biological target: Fuc(a1-2)Gal(b1-4)Glc
# Summary of the method: as §1
# Fuc(a1-2)Gal(b1-4)Glc6S = biological target: Fuc(a1-2)Gal(b1-4)Glc6S
# Summary of the method: as §1
# Fuc(a1-2)Gal(b1-4)GlcNAc = biological target: Fuc(a1-2)Gal(b1-4)GlcNAc
# Summary of the method: as §1
# [9] = biological target: Fuc(a1-2)Gal(b1-4)GlcNAc(b1-2)Man(a1-3)[Fuc(a1-2)Gal(b1-4)GlcNAc(b1-2)Man(a1-6)]Man(b1-4)GlcNAc(b1-4)GlcNAc
# Summary of the method: as §1
# [10] = biological target: Fuc(a1-2)Gal(b1-4)GlcNAc(b1-3)Gal(b1-4)GlcNAc
# Summary of the method: as §1
# [11] = biological target: Fuc(a1-2)Gal(b1-4)GlcNAc(b1-3)Gal(b1-4)GlcNAc(b1-3)Gal(b1-4)GlcNAc
# Summary of the method: as §1
# [12] = biological target: Fuc(a1-2)Gal(b1-4)GlcNAc6S
# Summary of the method: as §1
# [13] = biological target: Fuc(a1-2)Gal(b1-4)[Fuc(a1-3)]GlcNAc
# Summary of the method: as §1
# [14] = biological target: Fuc(a1-2)Gal(b1-4)[Fuc(a1-3)]GlcNAc(b1-2)Man(a1-3)[Fuc(a1-2)Gal(b1-4)[Fuc(a1-3)]GlcNAc(b1-2)Man(a1-6)]Man(b1-4)GlcNAc(b1-4)GlcNAc
# Summary of the method: as §1
# [15] = biological target: Fuc(a1-2)Gal(b1-4)[Fuc(a1-3)]GlcNAc(b1-3)Gal(b1-4)[Fuc(a1-3)]GlcNAc
# Summary of the method: as §1
# [16] = biological target: Fuc(a1-2)Gal(b1-4)[Fuc(a1-3)]GlcNAc(b1-3)Gal(b1-4)[Fuc(a1-3)]GlcNAc(b1-3)Gal(b1-4)[Fuc(a1-3)]GlcNAc
# Summary of the method: as §1
# Fuc(a1-2)Gal6S(b1-4)Glc = biological target: Fuc(a1-2)Gal6S(b1-4)Glc
# Summary of the method: as §1
# [17] = biological target: Fuc(a1-2)Gal6S(b1-4)Glc6S
# Summary of the method: as §1
# [18] = biological target: Fuc(a1-2)Gal6S(b1-4)GlcNAc
# Summary of the method: as §1
# Fuc(a1-2)[Gal(a1-3)]Gal = biological target: Fuc(a1-2)[Gal(a1-3)]Gal
# Summary of the method: as §1
# [19] = biological target: Fuc(a1-2)[Gal(a1-3)]Gal(b1-3)GlcNAc
# Summary of the method: as §1
# [20] = biological target: Fuc(a1-2)[Gal(a1-3)]Gal(b1-3)GlcNAc(b1-2)Man(a1-3)[Fuc(a1-2)[Gal(a1-3)]Gal(b1-3)GlcNAc(b1-2)Man(a1-6)]Man(b1-4)GlcNAc(b1-4)GlcNAc
# Summary of the method: as §1
# [21] = biological target: Fuc(a1-2)[Gal(a1-3)]Gal(b1-4)Glc
# Summary of the method: as §1
# [22] = biological target: Fuc(a1-2)[Gal(a1-3)]Gal(b1-4)GlcNAc
# Summary of the method: as §1
# [23] = biological target: Fuc(a1-2)[Gal(a1-3)]Gal(b1-4)GlcNAc(b1-2)Man(a1-3)[Fuc(a1-2)[Gal(a1-3)]Gal(b1-4)GlcNAc(b1-2)Man(a1-6)]Man(b1-4)GlcNAc(b1-4)GlcNAc
# Summary of the method: as §1
# [24] = biological target: Fuc(a1-2)[Gal(a1-3)]Gal(b1-4)[Fuc(a1-3)]GlcNAc
# Summary of the method: as §1
# [25] = biological target: Fuc(a1-2)[Gal(a1-4)]Gal(b1-4)GlcNAc
# Summary of the method: as §1
# [26] = biological target: Fuc(a1-2)[GalNAc(a1-3)]Gal
# Summary of the method: as §1
# [27] = biological target: Fuc(a1-2)[GalNAc(a1-3)]Gal(b1-3)GlcNAc
# Summary of the method: as §1
# [28] = biological target: Fuc(a1-2)[GalNAc(a1-3)]Gal(b1-3)GlcNAc(b1-2)Man(a1-3)[Fuc(a1-2)[GalNAc(a1-3)]Gal(b1-3)GlcNAc(b1-2)Man(a1-6)]Man(b1-4)GlcNAc(b1-4)GlcNAc
# Summary of the method: as §1
# [29] = biological target: Fuc(a1-2)[GalNAc(a1-3)]Gal(b1-4)Glc
# Summary of the method: as §1
# [30] = biological target: Fuc(a1-2)[GalNAc(a1-3)]Gal(b1-4)GlcNAc
# Summary of the method: as §1
# [31] = biological target: Fuc(a1-2)[GalNAc(a1-3)]Gal(b1-4)GlcNAc(b1-2)Man(a1-3)[GalNAc(a1-3)[Fuc(a1-2)]Gal(b1-4)GlcNAc(b1-2)Man(a1-6)]Man(b1-4)GlcNAc(b1-4)GlcNAc
# Summary of the method: as §1
# [32] = biological target: Fuc(a1-2)[GalNAc(a1-3)]Gal(b1-4)GlcNAc(b1-3)Gal(b1-4)GlcNAc
# Summary of the method: as §1
# [33] = biological target: Fuc(a1-2)[GalNAc(a1-3)]Gal(b1-4)GlcNAc(b1-3)Gal(b1-4)GlcNAc(b1-3)Gal(b1-4)GlcNAc
# Summary of the method: as §1
# [34] = biological target: Fuc(a1-2)[GalNAc(a1-3)]Gal(b1-4)[Fuc(a1-3)]GlcNAc
# Summary of the method: as §1
# [35] = biological target: Fuc(a1-2)[GalNAc(a1-4)]Gal(b1-4)GlcNAc
# Summary of the method: as §1
# [36] = biological target: Fuc(a1-2)[GalNAc(b1-3)]Gal
# Summary of the method: as §1
# Fuc(a1-3)GlcNAc = biological target: Fuc(a1-3)GlcNAc
# Summary of the method: as §1
binder,measurement,setting,value
"MRCL (Homo sapiens), NP_872425.1 (protein) ATKVHFPFHTCDLRIDGDCFMVSSEADTYYRARMKCQRKGGVLAQIKSQKVQDILAFYLGRLETTNEVTDSDFETRNFWIGLTYKTAKDSFRWATGEHQAFTSFAFGQPDNHGLVWLSAAMGFGNCVELQASAAFNWNNQRCKTRNRYICQFAQEHISRWGPGS",glycan array binding signal (z-score),Fuc(a1-2)Gal,0.097
same,glycan array binding signal (z-score),Fuc(a1-2)Gal(b1-3)GalNAc,0.001
same,glycan array binding signal (z-score),[1],-0.341
same,glycan array binding signal (z-score),[2],-0.424
same,glycan array binding signal (z-score),[3],0.114
same,glycan array binding signal (z-score),Fuc(a1-2)Gal(b1-3)GlcNAc,-0.522
same,glycan array binding signal (z-score),[4],3.42
same,glycan array binding signal (z-score),[5],-0.114
same,glycan array binding signal (z-score),[6],0.194
same,glycan array binding signal (z-score),[7],-0.199
same,glycan array binding signal (z-score),[8],0.034
same,glycan array binding signal (z-score),Fuc(a1-2)Gal(b1-4)Glc,0.42
same,glycan array binding signal (z-score),Fuc(a1-2)Gal(b1-4)Glc6S,1.22
same,glycan array binding signal (z-score),Fuc(a1-2)Gal(b1-4)GlcNAc,0.289
same,glycan array binding signal (z-score),[9],-0.629
same,glycan array binding signal (z-score),[10],-0.656
same,glycan array binding signal (z-score),[11],-0.461
same,glycan array binding signal (z-score),[12],-0.654
same,glycan array binding signal (z-score),[13],-0.195
same,glycan array binding signal (z-score),[14],0.44
same,glycan array binding signal (z-score),[15],-0.853
same,glycan array binding signal (z-score),[16],-0.093
same,glycan array binding signal (z-score),Fuc(a1-2)Gal6S(b1-4)Glc,0.193
same,glycan array binding signal (z-score),[17],0.108
same,glycan array binding signal (z-score),[18],1.38
same,glycan array binding signal (z-score),Fuc(a1-2)[Gal(a1-3)]Gal,-0.24
same,glycan array binding signal (z-score),[19],-0.549
same,glycan array binding signal (z-score),[20],0.26
same,glycan array binding signal (z-score),[21],2.33
same,glycan array binding signal (z-score),[22],-0.464
same,glycan array binding signal (z-score),[23],-0.272
same,glycan array binding signal (z-score),[24],-0.521
same,glycan array binding signal (z-score),[25],-0.456
same,glycan array binding signal (z-score),[26],-0.622
same,glycan array binding signal (z-score),[27],-0.508
same,glycan array binding signal (z-score),[28],-0.466
same,glycan array binding signal (z-score),[29],-0.524
same,glycan array binding signal (z-score),[30],-0.481
same,glycan array binding signal (z-score),[31],1.09
same,glycan array binding signal (z-score),[32],-0.633
same,glycan array binding signal (z-score),[33],1.51
same,glycan array binding signal (z-score),[34],-0.044
same,glycan array binding signal (z-score),[35],3.1
same,glycan array binding signal (z-score),[36],-0.682
same,glycan array binding signal (z-score),Fuc(a1-3)GlcNAc,-0.58
